Source: PubChem BioAssay (NCI)
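Method: 48-hour compound exposure of cells in 96-well plates, five concentrations, linear interpolation of endpoints. Abbreviation: GI50, concentration required for 50% inhibition of growth. TGI is the concentration that stops growth completely.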

What follows are molecules tested on NCI-H322M lung (assay: DTP human tumour cell line panel, 48 h).

Question: `N#CC1(C#N)C(c2ccccc2)NC23CCCCC2C1(C#N)C(=O)N3` (stereo unspecified) was tested. Which TGI did it give?
Answer: > 100 µM

Question: How did the GI50 turn out when `CC(C)NCCCNC1=C(Cl)C(=O)c2ccccc2C1=O` was run?
Answer: 15.9 µM

Question: And the TGI?
Answer: 33.3 µM

Question: `N[C@H]1CCc2c1nc1c(c2-c2ccccc2)CC[C@@H]1N` was tested. Which TGI did it give?
Answer: > 100 µM

Question: With `O=C(C1=CCC2(CC1)OCCO2)N(Cc1ccccc1)c1ccccc1I` as the molecule, how does the TGI read?
Answer: 37.7 µM

Question: How did the TGI turn out when `CC1(Br)C(=O)NC(=O)N([C@H]2C[C@H](O)[C@@H](CO)O2)C1N=[N+]=[N-]` (stereo partly specified) was run?
Answer: > 100 µM

Question: With `NC(Cc1ccc2oc3cc(=O)c4ccccc4c-3nc2c1)C(=O)O` (stereo unspecified) as the molecule, how does the TGI read?
Answer: 49.9 µM

Question: With `CC(=O)OCC1OC(Sc2nc(-c3ccc(C)cc3)c(C#N)c(=O)n2C2OC(COC(C)=O)C(OC(C)=O)C(OC(C)=O)C2OC(C)=O)C(OC(C)=O)C(OC(C)=O)C1OC(C)=O` (stereo unspecified) as the molecule, how does the TGI read?
Answer: > 100 µM

Question: With `COC(=O)C1=C(O)C(C(=O)OC)[C@@]2(O)[C@@H](C(=O)OC)C(c3ccc(OC(=O)/C(=C/c4ccccc4)c4ccccc4)cc3)C[C@@H]1[C@@H]2C(=O)OC` (stereo partly specified) as the molecule, how does the TGI read?
Answer: > 100 µM

Question: `COC(=O)c1ccc(NCc2cc(O)c3ccccc3c2O)cc1` was tested. Which TGI did it give?
Answer: 26.2 µM

Question: `CNC(=S)N/N=C(\C)c1ccc(OC)cc1O` was tested. Which TGI did it give?
Answer: > 100 µM

Question: For `C=C(C)[C@@H]1CC[C@]2(C)[C@H](CC=C3[C@@H]4CC(C)(C)CC[C@]4(C(=O)OC)CC[C@]32C)[C@@]1(C)CC/C(N)=N/O`, which GI50 is on record?
Answer: 2.26 µM

Question: And the TGI?
Answer: 6.14 µM

Question: Which results are given for `CCc1nc2cc(/C=C/C(=O)NO)c(F)cc2c(=O)n1CCc1ccccc1`?
Answer: GI50: 0.88 µM; TGI: 12.1 µM

Question: Which results are given for `CC(=O)O[C@H]1CC[C@]2(C)[C@H]3C(=O)C=C4[C@@H]5C[C@](C)(C(=O)N6CCCNCC6)CC[C@]5(C)CC[C@@]4(C)[C@]3(C)CC[C@H]2C1(C)C`?
Answer: GI50: 1.57 µM; TGI: 2.93 µM

Question: How did the TGI turn out when `CCCCCCCCCCCCCC/C(=C/OCC[N+](C)(C)C)OC(C)=O` (tested in a mixture with another compound) was run?
Answer: 14.2 µM

Question: With `COc1ccccc1NC(=O)N/C(N)=N/c1nc2ccccc2s1` as the molecule, how does the GI50 read?
Answer: 0.257 µM

Question: What about the TGI of the same molecule?
Answer: > 100 µM

Question: Which TGI does the source give for `CCOC(=O)C1=C(C)N(Cc2ccc(Cl)cc2Cl)C2(O)C(OC)CC(=O)C3C(=O)N(c4ccccc4)C(=O)C132` (stereo unspecified) here?
Answer: 22.2 µM

Question: Which TGI does the source give for `COC(=O)c1c(C)cccc1C1CN=NC12Cc1c(C)cccc1C2=O` (stereo unspecified) here?
Answer: > 100 µM

Question: What does the source list for `C[C@]1(O)CC(=O)[C@]2(O)C3=C(C=C[C@]2(O)C1)C(=O)c1c(O)cccc1C3=O`?
Answer: GI50: 14 µM; TGI: 27.2 µM

Question: What does the source list for `CC(C)(C)OC(=O)N(CCCn1c2c(c3ccccc3c1=O)C(=O)c1ccccc1-2)CCN(CCCn1c2c(c3ccccc3c1=O)C(=O)c1ccccc1-2)C(=O)OC(C)(C)C`?
Answer: GI50: > 50 µM; TGI: > 50 µM

Question: How did the TGI turn out when `COc1ccc(OC)c2c1C(=O)C(Cl)=C(Cl)C2=O` was run?
Answer: 58.9 µM

Question: With `S=c1scc(-c2ccc(Cl)cc2)n1OC1CCCC1` as the molecule, how does the TGI read?
Answer: > 100 µM

Question: For `C/C(=N/NC(=S)Nc1cccc(Cl)c1)c1cccc(/C(C)=N\NC(=S)Nc2cccc(Cl)c2)n1`, which TGI is on record?
Answer: 43 µM

Question: For `COc1cc2c3c(n(CCCn4cccn4)c(=O)c2cc1OC)-c1cc2c(cc1C3=O)OCO2`, which GI50 is on record?
Answer: 9.73 µM

Question: What about the TGI of the same molecule?
Answer: > 100 µM

Question: How did the TGI turn out when `CN(C)CCCNC(=O)c1cc(NC(=O)CCCn2c3ccccc3c3ccccc32)cn1C` was run?
Answer: > 100 µM

Question: How did the TGI turn out when `O=C(CCNC(=O)OCc1ccccc1)OCCCNC(=O)OCc1ccccc1` was run?
Answer: > 100 µM

Question: Which TGI does the source give for `CC(=O)C1C(=O)C(=O)N(c2ccc(Cl)cc2C)C1=O` (stereo unspecified) here?
Answer: > 100 µM

Question: Which TGI does the source give for `COc1ccc2c3c([nH]c2c1[N+](=O)[O-])C(C)N(C(=O)/C=C/c1ccccc1)CC3` (stereo unspecified) here?
Answer: 57.4 µM

Question: Which TGI does the source give for `O=C1C=CC(=O)c2c(O)c(Nc3ccc(OC(F)(F)F)cc3)c(Cl)c(O)c21` here?
Answer: 2.23 µM

Question: How did the TGI turn out when `OC(CCN1CCN(CCOC(c2ccc(F)cc2)c2ccc(F)cc2)CC1)c1ccccc1` (stereo unspecified) was run?
Answer: 29.5 µM

Question: `NC(N)=N/N=C/c1c(-c2ccc(Cl)c(Cl)c2Cl)nc2sccn12` was tested. Which TGI did it give?
Answer: 2.76 µM

Question: Which GI50 does the source give for `C=C(C)[C@@H]1CC[C@]2(c3ncc(C)o3)CC[C@]3(C)[C@H](CC[C@@H]4[C@@](C)(CCC#N)[C@H](C(=C)C)CC[C@]43C)[C@@H]12` here?
Answer: 10.3 µM

Question: And the TGI?
Answer: 26.3 µM

Question: How did the TGI turn out when `COc1ccc(-c2c(N)n(-c3cc(OC)cc(OC)c3)c(=O)c3cc([N+](=O)[O-])ccc23)cc1` was run?
Answer: > 100 µM

Question: How did the TGI turn out when `COC(=O)c1ccccc1C1CN=NC12Cc1c(C)c3c(c(C)c1C2=O)CCC3` (stereo unspecified) was run?
Answer: > 100 µM

Question: Which TGI does the source give for `Cc1c2ccccc2nc2[nH]c3ccncc3c12` here?
Answer: 90.1 µM

Question: `Cn1cc(C=C(C#N)C#N)c(=O)n(C)c1=O` was tested. Which TGI did it give?
Answer: > 100 µM

Question: Which TGI does the source give for `COc1cc(C(CN)N(C)C)cc(OC)c1OC` (stereo unspecified) here?
Answer: > 100 µM

Question: For `CN1NC(c2ccccc2)=C(C#N)C(=O)CC1c1ccccc1Cl` (stereo unspecified), which TGI is on record?
Answer: > 100 µM

Question: With `O=C(N/N=C/c1cc(Br)cc(Br)c1[O-])c1ccccc1O.O=C(N/N=C/c1cc(Br)cc(Br)c1[O-])c1ccccc1O.[Cl-].[Fe+3]` as the molecule, how does the TGI read?
Answer: 17.6 µM

Question: How did the TGI turn out when `COc1ccc(-n2c(C)nc3ccc(N=Cc4ccccc4)cc3c2=O)cc1` was run?
Answer: > 100 µM

Question: For `O=C(O)c1cc2c3c(c1)[C@H]1C=CC[C@H]1CN3CC1CC=CC21` (stereo partly specified), which TGI is on record?
Answer: > 100 µM

Question: For `CN(C)c1ncc(-c2c[nH]c3ccccc23)nc1-c1c[nH]c2ccccc12`, which TGI is on record?
Answer: 12.9 µM

Question: Which GI50 does the source give for `CC(=O)OC1C(O)COC(Oc2c(C)c3c4c(c2O)[C@@H](C)CC[C@@H]4[C@@H](C)C[C@H]3C=C(C)C)C1O` (stereo partly specified) here?
Answer: 12.3 µM

Question: And the TGI?
Answer: 25.8 µM

Question: Which TGI does the source give for `N#C/C(=C\N1CCNC1=S)C(=O)c1ccc2ccccc2c1` here?
Answer: > 100 µM

Question: With `S=C(NNC1=NCCCCN1)Nc1ccccc1` as the molecule, how does the TGI read?
Answer: > 100 µM

Question: Which TGI does the source give for `O=C(c1cccs1)N(C(=S)OCc1ccccn1)c1ccccc1` here?
Answer: > 100 µM

Question: With `Fc1ccc(C(OCCN2CC3CC2CN3CCCc2ccccc2)c2ccc(F)cc2)cc1` (stereo unspecified) as the molecule, how does the TGI read?
Answer: 26 µM
